T1: RBFOX1 RRM RbFoxmut (Fox-RRM*) (Homo sapiens, UniProt Q9NWB1 109-208, R118D;E147R;N151S;E152T)
T1 sequence: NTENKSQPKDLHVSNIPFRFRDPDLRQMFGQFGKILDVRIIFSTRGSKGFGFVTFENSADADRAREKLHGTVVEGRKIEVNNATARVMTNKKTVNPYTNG

B1: AAUCAGG (DNA:RNA)
RNA: GGGAGACCGGAAUUCAGAUUGUCCAAUCAGGUUAAAUCCCGUCGUAGCCACCA
DNA 1: CAATCTGAATTCCGGTCTCCC
DNA 2: TGGTGGCTACGACGGGATT
B2: CGACCCC (DNA:RNA)
RNA: B1 RNA with A25C, A26G, U27A, A29C, G30C, G31C
DNA 1: CAATCTGAATTCCGGTCTCCC
DNA 2: TGGTGGCTACGACGGGATT
B3: ACAAGGA (DNA:RNA)
RNA: B1 RNA with A26C, U27A, C28A, A29G, G31A
DNA 1: CAATCTGAATTCCGGTCTCCC
DNA 2: TGGTGGCTACGACGGGATT
B4: UGAAGCU (DNA:RNA)
RNA: GGGAGACCGGAAUUCAGAUUGUCCUGAAGCUUUAAAUCCCGUCGUAGCCACCA
DNA 1: CAATCTGAATTCCGGTCTCCC
DNA 2: TGGTGGCTACGACGGGATT
B5: UAGACUG (DNA:RNA)
RNA: B1 RNA with A25U, U27G, C28A, A29C, G30U
DNA 1: CAATCTGAATTCCGGTCTCCC
DNA 2: TGGTGGCTACGACGGGATT
B6: CCGCUUC (DNA:RNA)
RNA: B1 RNA with A25C, A26C, U27G, A29U, G30U, G31C
DNA 1: CAATCTGAATTCCGGTCTCCC
DNA 2: TGGTGGCTACGACGGGATT
B7: CUCUAGG (DNA:RNA)
RNA: B1 RNA with A25C, A26U, U27C, C28U
DNA 1: CAATCTGAATTCCGGTCTCCC
DNA 2: TGGTGGCTACGACGGGATT
B8: ACCGCAA (DNA:RNA)
RNA: B1 RNA with A26C, U27C, C28G, A29C, G30A, G31A
DNA 1: CAATCTGAATTCCGGTCTCCC
DNA 2: TGGTGGCTACGACGGGATT
B9: UCCCGGU (DNA:RNA)
RNA: B4 RNA with G26C, A27C, A28C, C30G
DNA 1: CAATCTGAATTCCGGTCTCCC
DNA 2: TGGTGGCTACGACGGGATT
B10: UACCGGC (DNA:RNA)
RNA: B1 RNA with A25U, U27C, A29G, G31C
DNA 1: CAATCTGAATTCCGGTCTCCC
DNA 2: TGGTGGCTACGACGGGATT
B11: GCCCGGC (DNA:RNA)
RNA: B1 RNA with A25G, A26C, U27C, A29G, G31C
DNA 1: CAATCTGAATTCCGGTCTCCC
DNA 2: TGGTGGCTACGACGGGATT
B12: UCCUUCC (DNA:RNA)
RNA: B4 RNA with G26C, A27C, A28U, G29U, U31C
DNA 1: CAATCTGAATTCCGGTCTCCC
DNA 2: TGGTGGCTACGACGGGATT
B13: CCUGAUA (DNA:RNA)
RNA: B1 RNA with A25C, A26C, C28G, G30U, G31A
DNA 1: CAATCTGAATTCCGGTCTCCC
DNA 2: TGGTGGCTACGACGGGATT
B14: AUUUCGA (DNA:RNA)
RNA: B1 RNA with A26U, C28U, A29C, G31A
DNA 1: CAATCTGAATTCCGGTCTCCC
DNA 2: TGGTGGCTACGACGGGATT
B15: CCCAACA (DNA:RNA)
RNA: B4 RNA with U25C, G26C, A27C, G29A, U31A
DNA 1: CAATCTGAATTCCGGTCTCCC
DNA 2: TGGTGGCTACGACGGGATT
B16: UUUCGUC (DNA:RNA)
RNA: B1 RNA with A25U, A26U, A29G, G30U, G31C
DNA 1: CAATCTGAATTCCGGTCTCCC
DNA 2: TGGTGGCTACGACGGGATT
B17: GGAAGAU (DNA:RNA)
RNA: B4 RNA with U25G, C30A
DNA 1: CAATCTGAATTCCGGTCTCCC
DNA 2: TGGTGGCTACGACGGGATT
B18: UAUACGC (DNA:RNA)
RNA: B1 RNA with A25U, C28A, A29C, G31C
DNA 1: CAATCTGAATTCCGGTCTCCC
DNA 2: TGGTGGCTACGACGGGATT
B19: AGAACCU (DNA:RNA)
RNA: B4 RNA with U25A, G29C
DNA 1: CAATCTGAATTCCGGTCTCCC
DNA 2: TGGTGGCTACGACGGGATT
B20: CCAAUAA (DNA:RNA)
RNA: B4 RNA with U25C, G26C, G29U, C30A, U31A
DNA 1: CAATCTGAATTCCGGTCTCCC
DNA 2: TGGTGGCTACGACGGGATT
B21: UAUUGAG (DNA:RNA)
RNA: B1 RNA with A25U, C28U, A29G, G30A
DNA 1: CAATCTGAATTCCGGTCTCCC
DNA 2: TGGTGGCTACGACGGGATT
B22: GAGCAUC (DNA:RNA)
RNA: B1 RNA with A25G, U27G, G30U, G31C
DNA 1: CAATCTGAATTCCGGTCTCCC
DNA 2: TGGTGGCTACGACGGGATT
B23: UAACUCA (DNA:RNA)
RNA: B4 RNA with G26A, A28C, G29U, U31A
DNA 1: CAATCTGAATTCCGGTCTCCC
DNA 2: TGGTGGCTACGACGGGATT
B24: UUUCAUA (DNA:RNA)
RNA: B1 RNA with A25U, A26U, G30U, G31A
DNA 1: CAATCTGAATTCCGGTCTCCC
DNA 2: TGGTGGCTACGACGGGATT
B25: AACAACA (DNA:RNA)
RNA: B1 RNA with U27C, C28A, G30C, G31A
DNA 1: CAATCTGAATTCCGGTCTCCC
DNA 2: TGGTGGCTACGACGGGATT
B26: ACAGACU (DNA:RNA)
RNA: B4 RNA with U25A, G26C, A28G, G29A
DNA 1: CAATCTGAATTCCGGTCTCCC
DNA 2: TGGTGGCTACGACGGGATT
B27: GCUUGAC (DNA:RNA)
RNA: B1 RNA with A25G, A26C, C28U, A29G, G30A, G31C
DNA 1: CAATCTGAATTCCGGTCTCCC
DNA 2: TGGTGGCTACGACGGGATT
B28: CACUAUC (DNA:RNA)
RNA: B1 RNA with A25C, U27C, C28U, G30U, G31C
DNA 1: CAATCTGAATTCCGGTCTCCC
DNA 2: TGGTGGCTACGACGGGATT
B29: ACCUCCC (DNA:RNA)
RNA: B1 RNA with A26C, U27C, C28U, A29C, G30C, G31C
DNA 1: CAATCTGAATTCCGGTCTCCC
DNA 2: TGGTGGCTACGACGGGATT
B30: ACUAGCA (DNA:RNA)
RNA: B4 RNA with U25A, G26C, A27U, U31A
DNA 1: CAATCTGAATTCCGGTCTCCC
DNA 2: TGGTGGCTACGACGGGATT
B31: AUUCAUC (DNA:RNA)
RNA: B1 RNA with A26U, G30U, G31C
DNA 1: CAATCTGAATTCCGGTCTCCC
DNA 2: TGGTGGCTACGACGGGATT

Residue numbers refer to the chain shown, from its start. This is one part of the list.

The assay deals with T1, RBFOX1 RRM RbFoxmut (Fox-RRM*). The assay can be described thus: EMSA; HiTS-Eq, 1 nM pool, 10 min; buffer printed only for the single-RNA assays: 10 mM Tris pH 7.5, 150 mM NaCl, 3.4 mM EDTA, 0.001% NP-40, 30 C. The note with it: tags: His6 N-terminal (pET28a); label: 5' 32P. In a few lines:
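Purified wild-type or mutant RbFox RRM at increasing concentrations was equilibrated with 1 nM of 5′-radiolabelled RNA carrying 7 randomized nucleotides for 10 min in 50 µL. Unbound RNA was separated by 8% native PAGE and sequenced. Relative association constants came from read-count changes of each RNA species compared with the control reaction, normalised to the cognate motif.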
As for B1, the binding signal was 0.0974 KA relative to UGCAUGU.
The result for B2 reads 0.0694 KA relative to UGCAUGU; that for B3, 0.0551 KA relative to UGCAUGU.
The result for B4 reads 0.0586 KA relative to UGCAUGU; that for B5, 0.14 KA relative to UGCAUGU.
The figure for B6 is 0.106 KA relative to UGCAUGU; for B7 it is 0.106 KA relative to UGCAUGU.
For the molecule B8, the binding signal is 0.0662 KA relative to UGCAUGU.
For B9, the binding signal is 0.0883 KA relative to UGCAUGU.
For B10, the binding signal was 0.0785 KA relative to UGCAUGU.
The figure for B11 is 0.0972 KA relative to UGCAUGU; for B12 it is 0.0388 KA relative to UGCAUGU.
On to B13, for which the binding signal was 0.0987 KA relative to UGCAUGU.
The figure for B14 is 0.114 KA relative to UGCAUGU.
As for B15, the binding signal was 0.103 KA relative to UGCAUGU.
The result for B16 reads 0.0788 KA relative to UGCAUGU; that for B17, 0.0639 KA relative to UGCAUGU; that for B18, 0.091 KA relative to UGCAUGU.
The figure for B19 is 0.0661 KA relative to UGCAUGU.
The result for B20 reads 0.139 KA relative to UGCAUGU; that for B21, 0.0978 KA relative to UGCAUGU.
B22: the binding signal is 0.278 KA relative to UGCAUGU.
The result for B23 reads 0.1 KA relative to UGCAUGU; that for B24, 0.0936 KA relative to UGCAUGU.
The figure for B25 is 0.107 KA relative to UGCAUGU; for B26 it is 0.0866 KA relative to UGCAUGU; for B27 it is 0.13 KA relative to UGCAUGU.
Turning to B28, the binding signal is 0.0692 KA relative to UGCAUGU.
Take B29: the binding signal was 0.0693 KA relative to UGCAUGU.
The result for B30 reads 0.168 KA relative to UGCAUGU; that for B31, 0.103 KA relative to UGCAUGU.

The values are drawn from article PMC9911399, “Two distinct binding modes provide the RNA-binding protein RbFox with extraordinary sequence specificity”.
